PubChem BioAssay AID504332 (National Center for Advancing Translational Sciences (NCATS), 2011)
Out of some 350,000 compounds screened, about 31,000 (8.9%) were called active. Inconclusive means that the source gave no clear call. Such entries were picked first, then a sample of the others. The call rests on the fitted dose curve; in most records, active means well fitted inhibition curve with a large enough effect; inconclusive means small, poorly fitted or top-dose-only effect; inactive means no such curve, though single readings can be large or run the other way. A potency beside an inconclusive call is a rough fit, not a confirmed value.

Molecular target: Histone-lysine N-methyltransferase EHMT2 (Homo sapiens) (UniProt Q96KQ7)
UniProt Q96KQ7, sequence (Q96KQ7 whole entry, looked up): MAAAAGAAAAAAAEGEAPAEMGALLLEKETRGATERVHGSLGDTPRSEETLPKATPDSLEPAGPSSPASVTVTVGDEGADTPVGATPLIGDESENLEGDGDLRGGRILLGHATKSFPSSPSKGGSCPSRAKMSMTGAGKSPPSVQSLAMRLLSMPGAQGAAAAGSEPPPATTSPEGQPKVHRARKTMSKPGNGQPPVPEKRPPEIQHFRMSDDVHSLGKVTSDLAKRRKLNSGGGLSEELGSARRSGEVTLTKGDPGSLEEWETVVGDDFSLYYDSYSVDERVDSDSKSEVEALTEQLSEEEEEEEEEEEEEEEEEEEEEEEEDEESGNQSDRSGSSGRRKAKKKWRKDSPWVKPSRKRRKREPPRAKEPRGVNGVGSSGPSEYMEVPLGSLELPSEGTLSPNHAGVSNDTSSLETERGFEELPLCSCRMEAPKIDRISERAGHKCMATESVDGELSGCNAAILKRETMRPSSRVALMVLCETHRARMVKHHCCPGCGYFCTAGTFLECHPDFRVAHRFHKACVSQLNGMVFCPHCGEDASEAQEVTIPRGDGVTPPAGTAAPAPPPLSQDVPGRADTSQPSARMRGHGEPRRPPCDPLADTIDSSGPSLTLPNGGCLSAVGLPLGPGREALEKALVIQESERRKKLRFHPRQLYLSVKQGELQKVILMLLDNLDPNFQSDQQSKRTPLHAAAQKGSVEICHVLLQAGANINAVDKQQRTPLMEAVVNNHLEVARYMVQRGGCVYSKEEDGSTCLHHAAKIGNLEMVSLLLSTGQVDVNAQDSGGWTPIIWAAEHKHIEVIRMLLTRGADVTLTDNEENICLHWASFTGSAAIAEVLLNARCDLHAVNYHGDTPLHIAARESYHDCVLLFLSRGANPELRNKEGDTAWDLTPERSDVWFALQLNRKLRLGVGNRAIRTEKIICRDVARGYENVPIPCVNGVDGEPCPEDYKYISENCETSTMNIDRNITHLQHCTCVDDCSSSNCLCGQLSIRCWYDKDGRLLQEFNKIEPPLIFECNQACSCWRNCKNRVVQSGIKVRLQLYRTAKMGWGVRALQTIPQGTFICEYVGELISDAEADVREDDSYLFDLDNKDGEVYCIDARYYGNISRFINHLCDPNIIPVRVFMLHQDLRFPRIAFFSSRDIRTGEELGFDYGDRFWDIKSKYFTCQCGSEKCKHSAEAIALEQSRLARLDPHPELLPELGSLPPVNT
Assay: qHTS Assay for Inhibitors of Histone Lysine Methyltransferase G9a; further: nearly all actives have a fitted effect of over 75% in size
Settings: G9a H3K9 monomethylation, AlphaScreen, 2 h; activity, negative = inhibition: at 59 µM (top of the series) unless noted
Outline: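 Methyltransferase reactions run at room temperature for 2 h (20 nM enzyme, 500 nM biotin-H3K9 peptide, 20 uM SAM) after a 15 min compound preincubation; product detected by AlphaScreen beads and anti-H3K9me1 antibody.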
On the % scale 0 is the no-effect control and ±100 the full control effect; potency means the concentration at half of the fitted maximal effect; tags describe the fitted curve by direction and shape.

| Compound | Potency | activity, negative = inhibition |
| --- | --- | --- |
| CC1(C(=O)N2CC3(CC(c4cccc([N+](=O)[O-])c4)=NO3)C[C@H]2C(=O)NCC(N)=O)CC1 (some centres not stated) | inconclusive: 39.8 µM [inhibitor, single point] | – |
| CCCn1cnc2cc(NCc3ccccn3)ccc21 | active: 10 µM | – |
| Cc1ccc(NC(=O)C2CCN(S(=O)(=O)c3ccccc3)CC2)cc1 | inconclusive: 89.1 µM [inhibitor, single point] | – |
| CCn1nc(C)c(NS(=O)(=O)c2ccccc2)c1C | inconclusive: 89.1 µM [inhibitor, single point] | – |
| CCOc1cc(C2C(C(=O)OC(C)C)=C(C)N=C3SCCC(=O)N32)ccc1OC(C)=O (configuration not stated) | inconclusive: 70.8 µM [inhibitor, partial curve, poor fit] | – |
| O=C(COc1ccccc1)Nc1cccc(-c2ccc(N3CCOCC3)nn2)c1 | – | inactive: -37.4% [at 102 µM] |
| CCOC(=O)C1=C(C)NC(=O)/C1=C\N(C)C | inconclusive: 50.1 µM [inhibitor, partial curve] | – |
| COCCn1c(NC(=S)NC(=O)C2CC2)cc(=O)[nH]c1=O | inconclusive: 2.24 µM [inhibitor, full curve, poor fit] | – |
| COCCNCCOc1ccccc1-c1ccccc1 | active: 10 µM | – |
| CCOc1ccc(OCCC(=O)OCC(=O)Nc2ccc(C)c(S(=O)(=O)N3CCCCC3)c2)cc1 | inconclusive: 44.7 µM [inhibitor, partial curve] | – |
| CC(C)Sc1nc2c(c(=O)[nH]c(=O)n2C)n1Cc1ccc(Cl)cc1 | inconclusive: 25.1 µM [inhibitor, single point] | – |
| Cc1ccc(CN2CCC(CNC(=O)c3cc4ccc5cccnc5c4[nH]3)CC2)cc1 | inconclusive: 20 µM [inhibitor, partial curve, poor fit] | – |
| COC(=O)CN1C(=S)N(c2ccc(Cl)cc2)C(=O)C1CC(=O)Nc1ccccc1 (configuration not stated) | inconclusive: 17.8 µM [inhibitor, single point] | – |
| COc1ccc(N2CCN(C(=O)CN3C(=O)c4ccccc4S3(=O)=O)CC2)cc1 | inconclusive: 3.16 µM [inhibitor, single point] | – |
| Cc1cc(C(=O)CSc2n[nH]c(N)n2)c(C)n1-c1cccc(F)c1 | – | inconclusive: -87.2% [inhibitor] |
| CCCCn1c(N)c(N(CC(C)C)C(=O)C2CC(=O)N(c3ccc4c(c3)OCCO4)C2)c(=O)[nH]c1=O (configuration not stated) | – | inactive: -41.5% [at 102 µM] |
| CNc1cc([N+](=O)[O-])ccc1N/C=C/C(=O)c1cccs1 | inconclusive: 39.8 µM [inhibitor, single point] | – |
| O=C(c1ccc(COc2c(F)c(F)c(F)c(F)c2F)o1)N1CCN(Cc2ccc3c(c2)OCO3)CC1 | inconclusive: 25.1 µM [inhibitor, single point] | – |
| COc1ccc(NC(=S)N/N=C/c2ccc(F)c(F)c2)cc1 | – | inconclusive: -82.7% [inhibitor] |
| COc1ccc(NC(=O)CCN2CCN(CCO)CC2)c(OC)c1 | – | inactive: -49.4% |
| CCn1c(-c2csc(C(C)C)c2)n[nH]c1=S | active: 1.58 µM | – |
| COc1ccccc1NC(=O)c1ccccc1S(=O)(=O)c1ccccc1[N+](=O)[O-] | inconclusive: 56.2 µM [inhibitor, partial curve] | – |
| CCOC(=O)C1=C(C)N(CCCC(=O)O)C(=O)NC1c1ccc([N+](=O)[O-])cc1 (configuration not stated) | – | inactive: -43% [at 102 µM] |

| Compound | Potency | activity, negative = inhibition |
| --- | --- | --- |
| COc1ccccc1CNC(=O)COc1cc(=O)n(C)c2ccccc12 | – | inactive: 3.09% |
| CCOc1cc(C(=O)Nc2nnc3n2CCS3)cc(OCC)c1OCC | – | inactive: 35.3% |
| Cc1ccccc1C(=O)Nc1nnc(SCc2cc(=O)n3ccccc3n2)s1 | – | inactive: -4.31% |
| NC(N)=N/N=C/c1ccc(Cl)c([N+](=O)[O-])c1 | inconclusive: 89.1 µM [inhibitor, single point] | – |
| CCSc1oc(-c2ccc(F)cc2)nc1S(=O)(=O)c1ccc(C)cc1 | active: 17.8 µM | – |
| CCCCCCCCCCOC(=O)Cn1c(COc2cccc(C)c2)[n+](C)c2ccccc21 | – | inactive: 23.4% [at 0.501 µM] |
| COc1cccc(NC(=O)C(Sc2nnnn2C)c2ccccc2)c1 (configuration not stated) | – | inactive: 5.67% [at 102 µM] |
| CC(C(=O)Nc1ccc(F)c(Cl)c1)N1Cc2ccccc2C1=O (configuration not stated) | – | inactive: 6.36% |
| CC1(C)CC(=O)C2=C(C1)OC(N)=C(C#N)C21CCC2(CC1)OCCO2 | inconclusive: 20 µM [inhibitor, single point] | – |
| COc1ccc(/C(=N/Nc2ncnc3ccccc23)C(=O)O)cc1 | inconclusive: 50.1 µM [inhibitor, partial curve, poor fit] | – |
| CN1CCN(C(=O)c2ccc3c(c2)N(Cc2c(F)cccc2Cl)C(=O)c2ccccc2S3)CC1 | inconclusive: 22.4 µM [inhibitor, partial curve, poor fit] | – |
| CCc1sc(Nc2ccc(Cl)cc2)nc1-c1cc2cccc(OC)c2oc1=O | inconclusive: 11.2 µM [inhibitor, partial curve] | – |
| CC(C)[C@H](NC(=O)OCc1ccccc1)C(=O)OCC(=O)NC1CCCCC1 | inconclusive: 79.4 µM [inhibitor, partial curve, poor fit] | – |
| Cc1ccccc1N1C(=O)C(Oc2ccc(Cl)cc2)C1CNCCCOC(C)C (configuration not stated) | inconclusive: 1.12 µM [inhibitor, full curve] | – |
| Cc1ccc(OCCSc2nc3ncnc(N)c3[nH]2)cc1 | – | inactive: 2.78% [at 102 µM] |
| CSc1ncccc1C(=O)OCC(=O)C(C)(C)C | inconclusive: 44.7 µM [inhibitor, partial curve, poor fit] | – |
| CN(C(=O)c1ccc2ccccc2c1)c1ccccn1 | inconclusive: 8.91 µM [inhibitor, partial curve, poor fit] | – |
| O=C(NCC(c1cccnc1)N1CCN(c2ccccc2)CC1)OCc1ccccc1 (configuration not stated) | inconclusive: 17.8 µM [inhibitor, partial curve] | – |
| COCCCNC(=O)c1ccccc1Sc1ccc(NC(C)=O)nc1 | inconclusive: 79.4 µM [inhibitor, partial curve, poor fit] | – |
| O=C(CCC(=O)N1CCc2ccccc21)Nc1ccccc1 | – | inconclusive: -61% [inhibitor] |
| CCCCn1c(N)c(N(CC(C)C)C(=O)c2cc(C)oc2C)c(=O)[nH]c1=O | inconclusive: 89.1 µM [inhibitor, single point] | – |
| CCSc1ccccc1C(=O)Nc1cccnc1 | inconclusive: 39.8 µM [inhibitor, single point] | – |
| O=c1oc2ccccc2cc1-c1ccccc1 | – | inactive: 12.9% [at 102 µM] |

| Compound | Potency | activity, negative = inhibition |
| --- | --- | --- |
| Cc1ccc(/C(O)=C2\C(=O)C(=O)N(CC(C)O)C2c2ccc(N(C)C)cc2)cc1 (configuration not stated) | inconclusive: 25.1 µM [inhibitor, single point] | – |
| N#C/C(=C/c1ccc(C(=O)O)cc1)C(=O)Nc1ccccc1 | inconclusive: 35.5 µM [inhibitor, partial curve, poor fit] | – |
| O=C(CCn1nc(-c2ccc(Cl)cc2)ccc1=O)NCc1cccnc1 | – | inactive: -1.58% |
| c1ccc(-c2nc(N3CCOCC3)c3ccccc3n2)nc1 | inconclusive: 1.26 µM [inhibitor, full curve, poor fit] | – |
| CC1CCN(S(=O)(=O)c2ccc(NC(=O)C3CSC4(C)CCC(=O)N34)cc2)CC1 (configuration not stated) | inconclusive: 79.4 µM [inhibitor, single point] | – |
| COc1ccccc1N1CCN(C(=O)c2cnn(-c3ccc(C)c(C)c3)c2C2CCN(C(=O)OC(C)(C)C)CC2)CC1 | inconclusive: 11.2 µM [inhibitor, partial curve, poor fit] | – |
| Cc1cc(NC(=O)CSc2ccccn2)cc(NC(=O)CSc2ccccn2)c1 | inconclusive: 89.1 µM [inhibitor, single point] | – |
| CCOc1ccc(N=C(NN)c2ccc3ccccc3n2)cc1 | active: 12.6 µM | – |
| N#C/C(=C(/O)COC(=O)c1ccccc1O)c1nc2ccccc2s1 | – | inconclusive: -53.7% [inhibitor] |
| O=C1CCC/C1=C/Nc1ccc(Cl)cc1 | – | inactive: -9.5% [at 102 µM] |
| CC(C)n1cc(CN2CCC(Oc3ccc(C(=O)N4CCCC4)cc3)CC2)cn1 | – | inactive: 13.1% [at 102 µM] |
| O=C(Nc1c(C(=O)NCc2ccco2)cnn1-c1ccccc1)c1ccc(F)cc1 | inconclusive: 0.794 µM [inhibitor, full curve, poor fit] | – |
| COC(=O)[C@H]1[C@H]2C[C@@H]3c4[nH]c5ccccc5c4CCN3C[C@H]2C[C@@H](OC(=O)c2cc(OC)c(OC)c(OC)c2)[C@@H]1OC | inconclusive: 1.12 µM [inhibitor, full curve, poor fit] | – |
| CCOC(=O)c1c(C)oc2ncnc(NCCCN3CCN(c4cc(C)ccc4C)CC3)c12 | inconclusive: 12.6 µM [inhibitor, partial curve] | – |
| C=CCNC(=O)CSc1nc2scc(-c3ccco3)c2c(=O)n1CC=C | inconclusive: 89.1 µM [inhibitor, partial curve, poor fit] | – |
| CN=c1scc(-c2ccccc2F)n1/N=C/c1ccc(O)c(O)c1O | active: 12.6 µM | – |
| COc1ccc(NC(=O)Cc2ccccc2)cc1 | inconclusive: 39.8 µM [inhibitor, single point] | – |
| COc1ccc(-n2c(C)nc3cc(C(=O)NCc4ccco4)ccc32)cc1 | inconclusive: 10 µM [inhibitor, partial curve, poor fit] | – |
| O=C(c1ccco1)N1CCN(c2c(-c3ccccc3)c3cc(Cl)ccc3[nH]c2=O)CC1 | inconclusive: 44.7 µM [inhibitor, partial curve] | – |
| Cn1c(=O)n(Cc2ccc(F)cc2)c(=O)c2c1nc1n2CCCN1Cc1ccccc1 | – | inconclusive: -76.7% [inhibitor] |
| COc1cccc(CCNC(=O)CC2C(=O)NCCN2CC(C)(C)C)c1 (configuration not stated) | inconclusive: 89.1 µM [inhibitor, single point] | – |
